Data taken from the RNAGym collection of RNA variant scans (doi:10.7554/elife.90254).
Read counts are not given, so values of variants with three or more changes are uncertain.

B1: OR4K15 (parent)
chain: GUUAACGGUCAUAGGCCAUGGAAACUAGGAGCACCAUUUCGCUGCCAGUGAAGAAAUGAACAAAGAAAAUCUGGGCCAGGCAGGCAUCAAAAGAAAUAGUCUUGCGCUCAACCAGAAAGUCUGUAAUCAUUUUAAGGGUA

Variants of: B1
Experiment: self-cleavage, relative activity (ratio to wild type); higher = more cleavage; in vitro, sequencing; the parent is a self-cleaving ribozyme
Work on GUUAACGGUCAUAGGCCAUGGAAACUAGGAGCACCAUUUCGCUGCCAGUGAAGAAAUGAACAAAGAAAAUCUGGGCCGGGCAGGCAUCAAAGGAAAUAGUCUUGCGCUCUACCAGAAAGUCUGUAAUCAUCUUAAGGGUA [A78G A92G A110U U131C] yielded a self-cleavage of 0.44. GUUAACGGUCAUAGGCCAUGGAAACUAGGAGCACCAUUUCGCUGCCAGUGAAGAAAUGAACAAAGAAAAUCUGGGCCGGGCAGGCAUCAAAAGAAAUAGCCUUGCGCUCAACCAGAAAGUCUGUAAUCAUUCUAAGGGUA [A78G U100C U132C] gave a self-cleavage of 0.25. With GUUAACGGUCAUAGGCCAUGGAAACUAGGAGCACCAUUUCGCUGCCAGUGAAGAAAUGAACAAAGAAAAUCUGGGCCGGGCAGGCAUCAAAAGGAAUAGUCUUGCGCUCAACCAGAGAGUCUGUAAUCAUUUUAAGGGUA [A78G A94G A117G] the self-cleavage was 0.55. Variant GUUAACGGUCAUAGGCCAUGGAAACUAGGAGCACCAUUUCGCUGCCAGUGAAGAAAUGAACAAAGAAAAUCUGGGCCGGGCAGGCAUCAAAGGAAAUAGUCUUGCGCUCAUCCAGAAAGUCUGUAAUCAUUUUAAGGGUA [A78G A92G A111U] has a self-cleavage of 0.02. Work on GUUAACGGUCAUAGGCCAUGGAAACUAGGAGCACCAUUUCGCUGCCAGUGAAGAAAUGAACAAAGAAAAUCUGGGCCGGGCAGGCAUCAAAAGGAAUAGUCUUGCGCUCAACCAGAAAGUCUGUAACCAUCUUAAGGGUA [A78G A94G U127C U131C] yielded a self-cleavage of 0.18. With GUUAACGGUCAUAGGCCAUGGAAACUAGGAGCACCAUUUCGCUGCCAGUGAAGAAAUGAACAAAGAAAAUCUGGGCCGGGCAGGCAUCAAAAGAAAUAGUCUUGCGCUCAAACAGAAGGUCCGUAAUCAUUUUAAGGGUA [A78G C112A A118G U122C] the self-cleavage was 0. In the case of GUUAACGGUCAUAGGCCAUGGAAACUAGGAGCACCAUUUCGCUGCCAGUGAAGAAAUGAACAAAGAAAAUCUGGGCCUGGCGGGCAUCAAAAGAAAUAGUCUUGCGCUCAACCAGAAAGUCCGUAAUCAUUUUAAGGGUA [A78U A82G U122C], the self-cleavage is reported as 0.08. Work on GUUAACGGUCAUAGGCCAUGGAAACUAGGAGCACCAUUUCGCUGCCAGUGAAGAAAUGAACAAAGAAAAUCUGGGCCGGGCAGGCAUCAAAAGAAAUAGUCUUGCGCUCAACCAGAAAGUCUGCAAUCAUCUUAAGGGUA [A78G U124C U131C] yielded a self-cleavage of 0.18. GUUAACGGUCAUAGGCCAUGGAAACUAGGAGCACCAUUUCGCUGCCAGUGAAGAAAUGAACAAAGAAAAUCUGGGCCGGGCAGGCAUCAAAGGAAAUAGUCUUGCGCUCAACCAGAAAGUCUGUAAUCAUUUUAGGGGUA [A78G A92G A135G] gave a self-cleavage of 0.12. With GUUAACGGUCAUAGGCCAUGGAAACUAGGAGCACCAUUUCGCUGCCAGUGAAGAAAUGAACAAAGAAAAUCUGGGCCGGGCAGGCAUCAAAAGAAAUAGUCUUGCGCUCAACCAGGAAGUCUGUAAUCAUUCUAAGGGUA [A78G A116G U132C] the self-cleavage was 0.16. Work on GUUAACGGUCAUAGGCCAUGGAAACUAGGAGCACCAUUUCGCUGCCAGUGAAGAAAUGAACAAAGAAAAUCUGGGCCGGGCAGGCACCAAGAGAAAUAGUCUUGCGCUCAACCAGAAAGUCUGUAACCAUUUUAAGGGUA [A78G U87C A91G U127C] yielded a self-cleavage of 0.03. For GUUAACGGUCAUAGGCCAUGGAAACUAGGAGCACCAUUUCGCUGCCAGUGAAGAAAUGAACAAAGAAAAUCUGGGCCGGGCAGGCAUCAAAAGAAAUAGUCUUGCGCUCGACCAGAAAGUCUGUAAUCAUUUUAGGGGUA [A78G A110G A135G], the self-cleavage was 0.04. Variant GUUAACGGUCAUAGGCCAUGGAAACUAGGAGCACCAUUUCGCUGCCAGUGAAGAAAUGAACAAAGAAAAUCUGGGCCGGGCAGGCGUCAAAAGAAAUAGCCUUGCGCUCAACCAGAAAGUCUGUAAUCAUCUUAAGGGUA [A78G A86G U100C U131C] has a self-cleavage of 0.25. Variant GUUAACGGUCAUAGGCCAUGGAAACUAGGAGCACCAUUUCGCUGCCAGUGAAGAAAUGAACAAAGAAAAUCUGGGCCGGGCAGGCAUCAAAAGAAGUUGUCUUGCGCUCAACCAGAAAGUCUGUAAUCAUUUUAAGGGUA [A78G A96G A98U] has a self-cleavage of 0.19. For GUUAACGGUCAUAGGCCAUGGAAACUAGGAGCACCAUUUCGCUGCCAGUGAAGAAAUGAACAAAGAAAAUCUGGGCCGGGCAGGCAUCAAAAGAAAUAGUCUUGCGCUCAACCAGAGAGUCUGUAAUCAUUCUAAGGGUA [A78G A117G U132C], the self-cleavage was 0.19. With GUUAACGGUCAUAGGCCAUGGAAACUAGGAGCACCAUUUCGCUGCCAGUGAAGAAAUGAACAAAGAAAAUCUGGGCCGGGCAGGCAUCAAAAGAAAUAGUCUUGCGCUCAACCGGAGAGUCUGUAAUCAUUUUAAGGGUA [A78G A114G A117G] the self-cleavage was 0.09. Variant GUUAACGGUCAUAGGCCAUGGAAACUAGGAGCACCAUUUCGCUGCCAGUGAAGAAAUGAACAAAGAAAAUCUGGGCCGGGCAGGCAUCAAAAGAAAUAGUCUUGCGCCCAACCAGAAAGUCUGCAAUCAUUUUAAGGGUA [A78G U108C U124C] has a self-cleavage of 0. GUUAACGGUCAUAGGCCAUGGAAACUAGGAGCACCAUUUCGCUGCCAGUGAAGAAAUGAACAAAGAAAAUCUGGGCCUGGCUGGCAUCAAAAGAAAUAGUCUUGCGCUCGACCAGAAAGUCUGUAAUCAUUUUAAGGGUA [A78U A82U A110G] gave a self-cleavage of 0.02. With GUUAACGGUCAUAGGCCAUGGAAACUAGGAGCACCAUUUCGCUGCCAGUGAAGAAAUGAACAAAGAAAAUCUGGGCCGGGCAGGCAUCAAAAGAAAUAGUCUUGCGCUCAACCCGAACGUCUGUAAUCGUUUUAAGGGUA [A78G A114C A118C A129G] the self-cleavage was 0. In the case of GUUAACGGUCAUAGGCCAUGGAAACUAGGAGCACCAUUUCGCUGCCAGUGAAGAAAUGAACAAAGAAAAUCUGGGCCGGGCAGGCAACAAAAGAAGUAGUCUUGCGCUCAACCAGAAAGUCUGUAAUCAUUUUAAGGGUA [A78G U87A A96G], the self-cleavage is reported as 0.24. For GUUAACGGUCAUAGGCCAUGGAAACUAGGAGCACCAUUUCGCUGCCAGUGAAGAAAUGAACAAAGAAAAUCUGGGCCGGGCAGGCAUCAAAAGGAAUAGUCUUGCGCUCAACCAGAAAGUCCGUGAUCAUUUUAGGGGCA [A78G A94G U122C A125G A135G U139C], the self-cleavage was 0.
